In PubChem BioAssay AID485294 (National Center for Advancing Translational Sciences (NCATS), 2010):
Screen size: about 370,000 compounds; about 150 (0.041%) were called active. The shares of active, inactive and inconclusive entries below differ from those in the screen. Calls come from the whole dose curve; as a rule, active = well fitted inhibition curve with a large enough effect; inconclusive = small, poorly fitted or top-dose-only effect; inactive = flat fitted curve, though single readings scatter. Potencies of inconclusive entries are left out as doubtful fits.

target: Beta-lactamase (Escherichia coli (strain K12)) (UniProt P00811); assay: qHTS Inhibitors of AmpC Beta-Lactamase (assay with detergent); details: AmpC hydrolysis of nitrocefin, absorbance 480 nm, 0.01% Triton; series mostly up to 114 µM; note: nearly all actives have a fitted effect of over 25% in size
Method in brief: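 20 mM phosphate pH 7.0 + 0.01% (detergent screen) or 0.0001% Triton X-100; 5.3 nM AmpC reagent; cpd preinc 15 min RT; nitrocefin (800 uM stock) to start; A480 q20 s × 4 min; Activity was normalised to no-enzyme and no-compound control wells.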
Potency is the fitted concentration of half-maximal effect; tags give direction and shape of the fitted curve.

Chain of UniProt P00811 (P00811 whole entry, looked up): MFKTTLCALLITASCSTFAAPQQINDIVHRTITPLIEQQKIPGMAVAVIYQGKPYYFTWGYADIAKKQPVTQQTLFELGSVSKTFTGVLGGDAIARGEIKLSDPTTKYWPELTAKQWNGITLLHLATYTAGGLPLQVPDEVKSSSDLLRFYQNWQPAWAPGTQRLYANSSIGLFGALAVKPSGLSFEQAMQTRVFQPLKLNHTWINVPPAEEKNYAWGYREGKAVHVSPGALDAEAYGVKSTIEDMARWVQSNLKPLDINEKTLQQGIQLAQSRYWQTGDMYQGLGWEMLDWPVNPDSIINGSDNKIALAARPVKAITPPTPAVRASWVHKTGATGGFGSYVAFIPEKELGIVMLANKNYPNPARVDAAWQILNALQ

| SMILES | Potency |
| --- | --- |
| COc1ccc(C)cc1NC(=O)CSc1ccc(-c2ccccn2)nn1 | inactive |
| COc1ccc(CNC(=O)C2CCCN2)cc1OC (configuration not stated) | inconclusive [inhibitor, single point] |
| O=C(NC(=S)NCCOCc1ccc(Cl)cc1)c1cccnc1 | inactive |
| COc1ccc2cc(CN(CC3COCCO3)S(=O)(=O)c3c(C)cc(C)cc3C)c(=O)[nH]c2c1 (configuration not stated) | inactive |
| Cc1ccc(/C=C2/SC(=S)N(CCCC(=O)Nc3ccc(O)cc3)C2=O)cc1 | inactive |
| COc1ccccc1NS(=O)(=O)c1cc(C(=O)NCC(C)(C)N2CCOCC2)ccc1C | inconclusive [inhibitor, partial curve] |
| Clc1cccc(-c2nnc(-c3ccno3)o2)c1 | inconclusive [inhibitor, partial curve] |
| CCN(CC)C(=O)c1cnn(-c2ccccc2)c1NC(=O)c1cccs1 | inconclusive [inhibitor, full curve, poor fit] |
| c1ccc2[nH]c(NC3=NCCC3)nc2c1 | inconclusive [inhibitor, full curve, poor fit] |
| COc1ccc2nc(NC(=O)Cn3cnc4c(=O)n(C)c(=O)n(C)c43)sc2c1 | inconclusive [inhibitor, full curve] |
| Cc1cc(C)n(-c2nc3ccccc3c(=O)n2OCC#N)n1 | inactive |
| COc1ccc(/C=C/C(=O)NC2CCCCCCC2)cc1S(=O)(=O)N1CCOCC1 | inactive |
| CC1CCN(S(=O)(=O)c2ccc3c(c2)CCN3C(=O)Nc2ccc(Br)cc2)CC1 | inactive |
| COc1ccc(C(=O)COC(=O)c2ccccn2)cc1OC | inconclusive [inhibitor, partial curve] |
| Cc1ccc(/C=N/NC(=O)C2=NNC(c3ccccc3)(c3ccccc3)C2)c(O)c1 | inconclusive [inhibitor, partial curve, poor fit] |
| Cc1cc(C)nc(N/N=C/c2cn[nH]c2-c2ccc(F)cc2)n1 | inactive |
| COC(=O)C1=C(C)NC(C)=C(C(=O)OC)C1c1ccc(C)o1 | inactive |
| COc1cccc(CNC(=O)CSc2ncc(S(=O)(=O)c3ccc(Br)cc3)c(=O)[nH]2)c1 | inactive |
| Cc1cc(NS(=O)(=O)c2ccc(NC(=O)c3cc(-c4cccnc4)nc4ccc(Cl)cc34)cc2)no1 | inconclusive [inhibitor, full curve, poor fit] |
| COc1cccc(C2=NOC(C(=O)N3CCN(C(=O)c4ccco4)CC3)C2)c1 (configuration not stated) | inconclusive [inhibitor, partial curve, poor fit] |
| CC(C)CNC(=O)C(=O)Nc1ccc(N(C)C)cc1 | inconclusive [inhibitor, full curve] |
| COc1ccc(CCCc2n[nH]c(=S)o2)cc1 | inactive |
| COc1ccc2c(c1)CCCC21NC(=O)NC1=O (configuration not stated) | inconclusive [inhibitor, full curve, poor fit] |
| COc1ccc(CCN2CC(C(=O)N(C)CCOc3ccccc3)CCC2=O)cc1 (configuration not stated) | inactive |

| SMILES | Potency |
| --- | --- |
| CCSc1nsc(NC(=O)Nc2ccccc2F)n1 | inconclusive [inhibitor, full curve, poor fit] |
| CC(OC(=O)c1nsc(Cl)c1Cl)C(=O)NCc1ccco1 (configuration not stated) | inconclusive [inhibitor, partial curve, poor fit] |
| O=C(c1ccccc1)N(Cc1ccc2c(c1)OCO2)Cc1nc2ccccc2c(=O)[nH]1 | inconclusive [inhibitor, partial curve] |
| CN(C)CCNC(=O)COc1ccc(Cl)cc1Cl | inconclusive [inhibitor, full curve, poor fit] |
| CCOC(=O)CSc1nc(C)c(C(=O)OCC)s1 | inconclusive [inhibitor, partial curve] |
| CCC(C(=O)c1ccccc1)N(C(=O)c1ccccc1Cl)N1C(=O)C2C3C=CC(C3)C2C1=O (configuration not stated) | inactive |
| O=C1CCC(=O)N1CC(=O)N1CCCc2ccccc21 | inconclusive [inhibitor, full curve, poor fit] |
| CC(=O)c1ccc(NC(=O)c2cnn3ccccc23)cc1 | inconclusive [inhibitor, full curve, poor fit] |
| COc1ccc(C2=CC(c3ccc(OC)c(OC)c3)NC(=S)N2)cc1 (configuration not stated) | inconclusive [inhibitor, full curve, poor fit] |
| O=C1C(Cl)=C(N2CCCCCC2)C(=O)N1c1ccc(Br)cc1 | inconclusive [inhibitor, full curve, poor fit] |
| CCOC(=O)c1c(C)[nH]c(C)c1S(=O)(=O)NCC(=O)N1CCN(c2cccc(C)c2)C(C)C1 (configuration not stated) | inactive |
| Cc1cc(OCC(=O)NCCCN2CCOCC2)c2c(C)cc(=O)oc2c1 | inconclusive [inhibitor, full curve, poor fit] |
| O=C(CCC(=O)c1cccs1)OCc1nc2ccccc2s1 | inactive |
| COc1ccccc1CCC(=O)OCC(=O)Nc1cccc(S(=O)(=O)N2CCOCC2)c1 | inconclusive [inhibitor, full curve] |
| Cc1ccc(/C=C2\SC(=O)N(CCNC(=O)C3CSC4(C)CCC(=O)N34)C2=O)cc1 (configuration not stated) | inconclusive [inhibitor, full curve, poor fit] |
| Cc1ccsc1C1Nc2ccccc2C(=O)N1O (configuration not stated) | inconclusive [inhibitor, partial curve] |
| CCC(=O)Nc1ccc(NC(=S)NC(=O)/C=C/c2ccccc2)cc1 | inconclusive [inhibitor, full curve, poor fit] |
| COC(=O)Cn1c(=O)sc2ccccc21 | inconclusive [inhibitor, single point] |
| CCOC(=O)c1[nH]c(C)c(/C(O)=C2\C(=O)C(=O)N(CCN(C)C)C2c2ccncc2)c1C (configuration not stated) | inconclusive [inhibitor, full curve, poor fit] |
| CC1=C(C(=O)N2CCN(c3cccc(C)c3C)CC2)C2(CCCCC2)OC1=O | inactive |
| CCSc1nnc(-c2cnn(-c3ccccc3)c2-n2cccc2)n1C | inactive |
| O=C(CCc1nnc(Cc2ccc3c(c2)OCO3)o1)NCc1nc2ccccc2s1 | inactive |
| CCc1ccc(CCC(=O)Nc2ccc(Cl)cc2)o1 | inactive |
| COc1ccc(-n2ncc3c2CC(C)(C)CC3NC(=O)c2ccoc2C)cc1 (configuration not stated) | inactive |

| SMILES | Potency |
| --- | --- |
| O=C(NCCCN1CCOCC1)c1ccc2c(c1)N(Cc1ccccc1F)C(=O)c1ccccc1S2=O (configuration not stated) | inactive |
| c1ccc(COc2cccc(CNCc3cccs3)c2)cc1 | inactive |
| CCOC(=O)c1ccc(Nc2nc(-c3cccnc3)nc3ccccc23)cc1 | inactive |
| COc1ccc(/C=C/C(=O)NCC(=O)N/N=C/c2cccnc2)cc1 | inconclusive [inhibitor, single point] |
| COC(=O)CCC(=O)OC1(C)C(=O)C=C2C=C(C3CC3)N(Cc3ccc(OC)cc3)C=C2C1=O (configuration not stated) | inactive |
| CC(=O)c1ccc(OCC(=O)OCc2cc(-c3ccco3)on2)cc1 | inactive |
| COc1ccc2c(c1OC)C(=O)OC2C1c2cc3c(cc2CCN1C)OCO3 (configuration not stated) | inconclusive [inhibitor, full curve, poor fit] |
| Cc1nnc(SCc2ccccc2F)n1NCc1cccs1 | inconclusive [inhibitor, full curve, poor fit] |
| COc1ccc(S(=O)(=O)N(CC(=O)NCc2ccccc2)c2ccc(C)cc2)cc1OC | inactive |
| COc1ccc(C(C)n2c(C)c3c(C)nnc(C)c3c2C)cc1 (configuration not stated) | inconclusive [inhibitor, partial curve, poor fit] |
| Cc1oc2cc(O)cc(C)c2c(=O)c1-c1cnn(-c2ccccc2)c1 | inactive |
| C[C@H](CCC(=O)NCC(=O)O)[C@H]1CC[C@H]2[C@@H]3[C@H](O)C[C@@H]4C[C@H](O)CC[C@]4(C)[C@H]3C[C@H](O)[C@]12C | inconclusive [inhibitor, full curve] |
| CN(C(=O)CN1C(=O)CCSc2ccc(S(=O)(=O)N3CCCC3)cc21)c1ccccc1 | inconclusive [inhibitor, partial curve, poor fit] |
| Cc1cccc(C)c1OCc1nnc(NC(=O)CSc2ccc(Cl)cc2)s1 | inactive |
| O=C(Nc1nc2ccccc2s1)C1=NN(c2ccccc2)C(=O)CC1 | inactive |
| COc1ccccc1NC(=O)CN(C)S(=O)(=O)c1cc(C)ccc1OC | inconclusive [inhibitor, full curve, poor fit] |
| CCc1ccc(NCc2cc3cc(OC)c(OC)cc3n(CC(=O)Nc3cc(C)ccc3C)c2=O)cc1 | inactive |
| O=c1c2ccccc2[nH]c(=S)n1CCN1CCCC1 | inactive |
| O=c1[nH]c2ccc(Br)cc2c(-c2ccccc2)c1CN1CCOCC1 | inconclusive [inhibitor, full curve, poor fit] |
| Cc1nn(-c2ccccc2)c2sc(C(=O)n3cccn3)cc12 | inconclusive [inhibitor, full curve] |
| CCSc1nc2c([nH]c3ccccc32)c(=O)n1C | inconclusive [inhibitor, partial curve, poor fit] |
| Cc1ccc2c(c1)c1c(c(=O)n(Cc3ccccc3)c(=O)n1CC(=O)NCc1ccccc1Cl)n2C | inactive |
| C=CCn1c(SCC(=O)Nc2cccc3ccccc23)nnc1-c1cnccn1 | inactive |
| O=c1ccc(-c2n[nH]c(=S)n2-c2ccc(F)c(Cl)c2)n[nH]1 | inconclusive [inhibitor, single point] |
